Some of the results follow.
Legend:
Experiment in all cases: glycan array binding signal (z-score within array); higher = stronger binding
Conditions in all cases: glycan notation: IUPAC condensed, linker removed
Neu5Ac(a2-3)Gal = molecular target: Neu5Ac(a2-3)Gal
Outline: (§1)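 Columns mapping to the same glycan were averaged after glycan names were converted to IUPAC-condensed notation. The data come from 3228 arrays in the Consortium for Functional Glycomics database, limited to those with an available protein sequence. Binding is reported as a within-array Z-score averaged across arrays of one protein sequence and across linkers.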

[1] = molecular target: Neu5Ac(a2-3)Gal(b1-3)GalNAc
Outline: as §1

[2] = molecular target: Neu5Ac(a2-3)Gal(b1-3)GalNAc(b1-3)Gal(a1-4)Gal(b1-4)Glc
Outline: as §1

[3] = molecular target: Neu5Ac(a2-3)Gal(b1-3)GalNAc(b1-4)Gal(b1-4)Glc
Outline: as §1

[4] = molecular target: Neu5Ac(a2-3)Gal(b1-3)GalNAc(b1-4)[Neu5Ac(a2-3)]Gal(b1-4)Glc
Outline: as §1

[5] = molecular target: Neu5Ac(a2-3)Gal(b1-3)GalNAc(b1-4)[Neu5Ac(a2-8)Neu5Ac(a2-3)]Gal(b1-4)Glc
Outline: as §1

[6] = molecular target: Neu5Ac(a2-3)Gal(b1-3)GalNAc6S
Outline: as §1

[7] = molecular target: Neu5Ac(a2-3)Gal(b1-3)GlcNAc
Outline: as §1

[8] = molecular target: Neu5Ac(a2-3)Gal(b1-3)GlcNAc(b1-2)Man
Outline: as §1

[9] = molecular target: Neu5Ac(a2-3)Gal(b1-3)GlcNAc(b1-2)Man(a1-3)[GlcNAc(b1-4)][Neu5Ac(a2-3)Gal(b1-3)GlcNAc(b1-2)Man(a1-6)]Man(b1-4)GlcNAc(b1-4)GlcNAc
Outline: as §1

[10] = molecular target: Neu5Ac(a2-3)Gal(b1-3)GlcNAc(b1-2)Man(a1-3)[Neu5Ac(a2-3)Gal(b1-3)GlcNAc(b1-2)Man(a1-6)]Man(b1-4)GlcNAc(b1-4)GlcNAc
Outline: as §1

[11] = molecular target: Neu5Ac(a2-3)Gal(b1-3)GlcNAc(b1-2)[Neu5Ac(a2-3)Gal(b1-3)GlcNAc(b1-4)]Man(a1-6)[Neu5Ac(a2-3)Gal(b1-3)GlcNAc(b1-2)Man(a1-3)]Man(b1-4)GlcNAc(b1-4)GlcNAc
Outline: as §1

[12] = molecular target: Neu5Ac(a2-3)Gal(b1-3)GlcNAc(b1-3)Gal(b1-3)GlcNAc
Outline: as §1

[13] = molecular target: Neu5Ac(a2-3)Gal(b1-3)GlcNAc(b1-3)Gal(b1-4)GlcNAc
Outline: as §1

[14] = molecular target: Neu5Ac(a2-3)Gal(b1-3)GlcNAc(b1-3)GalNAc
Outline: as §1

[15] = molecular target: Neu5Ac(a2-3)Gal(b1-3)GlcNAc(b1-6)GalNAc
Outline: as §1

[16] = molecular target: Neu5Ac(a2-3)Gal(b1-3)GlcNAc6S
Outline: as §1

[17] = molecular target: Neu5Ac(a2-3)Gal(b1-3)[Fuc(a1-4)]GlcNAc
Outline: as §1

[18] = molecular target: Neu5Ac(a2-3)Gal(b1-3)[Fuc(a1-4)]GlcNAc(b1-3)Gal(b1-3)[Fuc(a1-4)]GlcNAc
Outline: as §1

[19] = molecular target: Neu5Ac(a2-3)Gal(b1-3)[Fuc(a1-4)]GlcNAc(b1-3)Gal(b1-4)[Fuc(a1-3)]GlcNAc
Outline: as §1

[20] = molecular target: Neu5Ac(a2-3)Gal(b1-3)[GlcNAc(b1-6)]GalNAc
Outline: as §1

[21] = molecular target: Neu5Ac(a2-3)Gal(b1-3)[Neu5Ac(a2-6)]GalNAc
Outline: as §1

[22] = molecular target: Neu5Ac(a2-3)Gal(b1-3)[Neu5Ac(a2-6)]GlcNAc(b1-3)[Fuc(a1-3)[Gal(b1-4)]GlcNAc(b1-6)]Gal(b1-4)Glc
Outline: as §1

[23] = molecular target: Neu5Ac(a2-3)Gal(b1-3)]Neu5Ac(a2-3)Gal(b1-4)]GlcNAc
Outline: as §1

Neu5Ac(a2-3)Gal(b1-4)Glc = molecular target: Neu5Ac(a2-3)Gal(b1-4)Glc
Outline: as §1

[24] = molecular target: Neu5Ac(a2-3)Gal(b1-4)GlcNAc
Outline: as §1

[25] = molecular target: Neu5Ac(a2-3)Gal(b1-4)GlcNAc(b1-2)Man
Outline: as §1

[26] = molecular target: Neu5Ac(a2-3)Gal(b1-4)GlcNAc(b1-2)Man(a1-3)[GlcNAc(b1-4)][Neu5Ac(a2-3)Gal(b1-4)GlcNAc(b1-2)Man(a1-6)]Man(b1-4)GlcNAc(b1-4)GlcNAc
Outline: as §1

[27] = molecular target: Neu5Ac(a2-3)Gal(b1-4)GlcNAc(b1-2)Man(a1-3)[Neu5Ac(a2-3)Gal(b1-4)GlcNAc(b1-2)Man(a1-6)]Man(b1-4)GlcNAc(b1-4)GlcNAc
Outline: as §1

[28] = molecular target: Neu5Ac(a2-3)Gal(b1-4)GlcNAc(b1-2)Man(a1-3)[Neu5Ac(a2-3)Gal(b1-4)GlcNAc(b1-2)Man(a1-6)]Man(b1-4)GlcNAc(b1-4)[Fuc(a1-6)]GlcNAc
Outline: as §1

[29] = molecular target: Neu5Ac(a2-3)Gal(b1-4)GlcNAc(b1-2)Man(a1-3)[Neu5Ac(a2-6)Gal(b1-4)GlcNAc(b1-2)Man(a1-6)]Man(b1-4)GlcNAc(b1-4)GlcNAc
Outline: as §1

[30] = molecular target: Neu5Ac(a2-3)Gal(b1-4)GlcNAc(b1-2)[Neu5Ac(a2-3)Gal(b1-4)GlcNAc(b1-4)]Man(a1-3)[GlcNAc(b1-4)][Neu5Ac(a2-3)Gal(b1-4)GlcNAc(b1-2)[Neu5Ac(a2-3)Gal(b1-4)GlcNAc(b1-6)]Man(a1-6)]Man(b1-4)GlcNAc(b1-4)GlcNAc
Outline: as §1

[31] = molecular target: Neu5Ac(a2-3)Gal(b1-4)GlcNAc(b1-2)[Neu5Ac(a2-3)Gal(b1-4)GlcNAc(b1-4)]Man(a1-3)[GlcNAc(b1-4)][Neu5Ac(a2-3)Gal(b1-4)GlcNAc(b1-4)Man(a1-6)]Man(b1-4)GlcNAc(b1-4)GlcNAc
Outline: as §1

[32] = molecular target: Neu5Ac(a2-3)Gal(b1-4)GlcNAc(b1-2)[Neu5Ac(a2-3)Gal(b1-4)GlcNAc(b1-6)]Man(a1-6)[Neu5Ac(a2-3)Gal(b1-4)GlcNAc(b1-2)Man(a1-3)][GlcNAc(b1-4)]Man(b1-4)GlcNAc(b1-4)GlcNAc
Outline: as §1

[33] = molecular target: Neu5Ac(a2-3)Gal(b1-4)GlcNAc(b1-3)Gal
Outline: as §1

[34] = molecular target: Neu5Ac(a2-3)Gal(b1-4)GlcNAc(b1-3)Gal(b1-3)GlcNAc
Outline: as §1

[35] = molecular target: Neu5Ac(a2-3)Gal(b1-4)GlcNAc(b1-3)Gal(b1-4)GlcNAc
Outline: as §1

B1: Gal-9-hFc (Mus musculus), O08573-2 (protein)
chain: MALFSAQSPYINPIIPFTGPIQGGLQEGLQVTLQGTTKSFAQRFVVNFQNSFNGNDIAFHFNPRFEEGGYVVCNTKQNGQWGPEERKMQMPFQKGMPFELCFLVQRSEFKVMVNKKFFVQYQHRVPYHLVDTIAVSGCLKLSFITFQTQNFRPAHQAPMAQTTIHMVHSTPGQMFSTPGIPPVVYPTPAYTIPFYTPIPNGLYPSKSIMISGNVLPDATRFHINLRCGGDIAFHLNPRFNENAVVRNTQINNSWGQEERSLLGRMPFSRGQSFSVWIICEGHCFKVAVNGQHMCEYYHRLKNLQDINTLEVAGDIQLTHVQT
glycan array binding signal (z-score) (Neu5Ac(a2-3)Gal): -0.463
glycan array binding signal (z-score) [1]: 0.302
glycan array binding signal (z-score) [2]: -0.017
glycan array binding signal (z-score) [3]: 0.063
glycan array binding signal (z-score) [4]: -0.079
glycan array binding signal (z-score) [5]: -0.474
glycan array binding signal (z-score) [6]: -0.316
glycan array binding signal (z-score) [7]: -0.093
glycan array binding signal (z-score) [8]: -0.372
glycan array binding signal (z-score) [9]: 0.569
glycan array binding signal (z-score) [10]: 1.16
glycan array binding signal (z-score) [11]: -0.482
glycan array binding signal (z-score) [12]: -0.12
glycan array binding signal (z-score) [13]: -0.13
glycan array binding signal (z-score) [14]: -0.372
glycan array binding signal (z-score) [15]: -0.256
glycan array binding signal (z-score) [16]: -0.023
glycan array binding signal (z-score) [17]: -0.417
glycan array binding signal (z-score) [18]: -0.306
glycan array binding signal (z-score) [19]: -0.428
glycan array binding signal (z-score) [20]: -0.36
glycan array binding signal (z-score) [21]: -0.277
glycan array binding signal (z-score) [22]: -0.565
glycan array binding signal (z-score) [23]: -0.473
glycan array binding signal (z-score) (Neu5Ac(a2-3)Gal(b1-4)Glc): 0.865
glycan array binding signal (z-score) [24]: -0.36
glycan array binding signal (z-score) [25]: 3.47
glycan array binding signal (z-score) [26]: -0.387
glycan array binding signal (z-score) [27]: -0.294
glycan array binding signal (z-score) [28]: -0.407
glycan array binding signal (z-score) [29]: 1.58
glycan array binding signal (z-score) [30]: -0.527
glycan array binding signal (z-score) [31]: -0.359
glycan array binding signal (z-score) [32]: -0.446
glycan array binding signal (z-score) [33]: -0.264
glycan array binding signal (z-score) [34]: -0.186
glycan array binding signal (z-score) [35]: -0.313

From the supplement of paper PMC8728848
